Results are given in words; binding and its absence hold for the method and conditions named. In cells and extracts the contact can be indirect. Some results given as binding are weak or reduced against the parent protein; the word gives no strength. For part of these data: Tags and fused reporters may be left off the sequences shown.

By UniProt entry, the sequences of proteins in these tests, tags left out.
UniProt P05198: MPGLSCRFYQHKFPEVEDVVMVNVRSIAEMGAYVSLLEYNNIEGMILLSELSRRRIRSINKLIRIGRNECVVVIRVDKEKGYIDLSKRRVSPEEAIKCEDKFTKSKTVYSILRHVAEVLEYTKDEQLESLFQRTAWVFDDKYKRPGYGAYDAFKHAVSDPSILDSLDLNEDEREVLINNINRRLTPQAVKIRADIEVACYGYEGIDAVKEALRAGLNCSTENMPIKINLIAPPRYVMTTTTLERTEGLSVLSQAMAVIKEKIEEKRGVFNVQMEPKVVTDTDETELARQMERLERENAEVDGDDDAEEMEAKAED

In assay [1] the target is T1, HA-tagged TIPRL (human) (UniProt O75663).
T1 sequence: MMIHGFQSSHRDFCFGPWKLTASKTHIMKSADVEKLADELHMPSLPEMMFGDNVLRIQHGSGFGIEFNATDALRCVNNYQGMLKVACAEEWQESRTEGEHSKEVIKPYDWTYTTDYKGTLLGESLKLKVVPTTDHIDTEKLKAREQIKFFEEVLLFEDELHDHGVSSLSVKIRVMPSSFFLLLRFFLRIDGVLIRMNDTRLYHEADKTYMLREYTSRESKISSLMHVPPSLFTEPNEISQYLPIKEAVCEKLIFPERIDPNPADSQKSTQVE
In words: co-IP; IP with anti-HA antibody of 293T cells co-transfected with HA-TIPRL along with GST-Mock, GST-eIF2α, GST-eIF2β or GST-eIF2γ; Western blot. In general terms: A western blot detects proteins with antibodies after separation by electrophoresis.

In assay [2] the target is T1, HA-tagged TIPRL (human). In words: co-IP; IP with anti-HA antibody of lysates of 293T cells transfected with gradual concentration of HA-tagged TIPRL; endogenous eIF2α detected by Western blot.
For assay [3], the target named is T2, TOR signaling pathway regulator-like (TIPRL) protein (human (endogenous in A549)) (UniProt O75663).
T2 sequence: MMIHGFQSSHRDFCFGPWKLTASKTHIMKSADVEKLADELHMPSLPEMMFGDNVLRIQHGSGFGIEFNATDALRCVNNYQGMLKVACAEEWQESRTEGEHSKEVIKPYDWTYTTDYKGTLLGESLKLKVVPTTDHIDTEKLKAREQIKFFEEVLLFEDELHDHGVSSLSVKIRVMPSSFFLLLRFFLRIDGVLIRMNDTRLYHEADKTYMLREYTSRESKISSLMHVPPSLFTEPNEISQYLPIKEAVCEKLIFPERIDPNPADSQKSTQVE
In words: co-IP; IP of A549 cell lysates with anti-TIPRL antibody and protein G-agarose, 2 h at 4 °C, washed with TBS, Western blot; endogenous proteins; cells untreated or incubated in EBSS for 2 h.

Assay [4] deals with eukaryotic initiation factor 2α (eIF2α) (human (endogenous in A549)) (UniProt P05198). In words: co-IP; IP assay of A549 cells mixed with synthetic TIPRL-mimic peptides (86–100 or 174–188); endogenous eIF2α; only the binder purified.
The target of assay [5] is GST-eIF2α (human) (UniProt P05198). Nature of the assay: pull-down; GST precipitated from lysates of 293T cells co-transfected with GST-tagged eIF2 subunits and HA-tagged TIPRL or its deletion mutants; Western blot.

GST-eIF2α (from UniProt P05198 1-315): the binding result in assay [1] was “binds”. With “endogenous eIF2α in 293T cells (from UniProt P05198 1-315)”, the binding result in assay [2] was “binds”. Consider “eukaryotic initiation factor 2α (eIF2α) (from UniProt P05198 1-315)”, for which, in assay [3], the binding result is “binds”. In the case of VMPSSFFLLLRFFLR (peptide, UniProt O75663 174-188, fluorescein isothiocyanate (FITC) tag, end not stated) [TIPRL mimic peptide (174–188 amino acids)], the binding entry in assay [4] is listed as “binds”.

Turning to ACAEEWQESRTEGEH (peptide, UniProt O75663 86-100) [Negative Control peptide (86–100 amino acids)], in assay [4], the binding entry is given as “no binding”.

B1: HA-tagged TIPRL (protein, UniProt O75663 1-272)
chain: MMIHGFQSSHRDFCFGPWKLTASKTHIMKSADVEKLADELHMPSLPEMMFGDNVLRIQHGSGFGIEFNATDALRCVNNYQGMLKVACAEEWQESRTEGEHSKEVIKPYDWTYTTDYKGTLLGESLKLKVVPTTDHIDTEKLKAREQIKFFEEVLLFEDELHDHGVSSLSVKIRVMPSSFFLLLRFFLRIDGVLIRMNDTRLYHEADKTYMLREYTSRESKISSLMHVPPSLFTEPNEISQYLPIKEAVCEKLIFPERIDPNPADSQKSTQVE
Take B1: the binding result in assay [5] is given as “binds”.

The values above are taken from article PMC6925247.
